In the RNAGym collection of RNA variant scans (doi:10.1093/nar/gkz1192):
The source gives no read counts; variants with many changes may rest on few reads.

B1: CPEB3 Ribozyme (parent)
chain: UAACAGGGGGCCACAGCAGAAGCGUUCACGUCGCAGCCCCUGUCAGAUUCUGGUGAAUCUGCGAAUUCUGCUGUAUAUCUC

Variants of: B1
Assay: self-cleavage, relative activity (ratio to wild type); higher = more cleavage; in vitro, sequencing
Method in brief: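 Libraries of CPEB3 self-cleaving ribozyme mutants came from rounds of error-prone PCR and carried barcodes, which DNA sequencing matched to variants. In vitro transcription used T7 RNA polymerase at 37°C for 5 hours, with a further 15 min in DNase I before EDTA stopped the reaction; the ribozymes cleaved during both steps. The RNA was reverse transcribed with template switching and sequenced on Illumina. Relative activity is the cleaved/total read fraction of a variant divided by that of the unmutated ribozyme, averaged over three batches with at least 5 reads.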
With A20U U51A A77G the self-cleavage was 0.28.
A20U U51C U54G A57G U60A U72C gave a self-cleavage of 0.12.
A20U U51C U69A G73A gave a self-cleavage of 0.35.
A20U U54A C62U U78A gave a self-cleavage of 0.16.
In the case of A20U U54C U72C, the self-cleavage is reported as 0.2.
Variant A20U U54C U78C has a self-cleavage of 0.22.
With A20U U60A U69C the self-cleavage was 0.14.
In the case of A20U U60C A64G U66C U67C, the self-cleavage is reported as 0.08.
In the case of A20U U60C A75G, the self-cleavage is reported as 0.13.
A20U U60C U66C showed a self-cleavage of 0.28.
Variant A20U U66A A77U has a self-cleavage of 0.28.
Work on A20U U67A U78C yielded a self-cleavage of 1.03.
A20U U69G C79G gave a self-cleavage of 0.13.
With A21C A28G U48C U51A U80C the self-cleavage was 0.
Variant A21C A28U U58A has a self-cleavage of 0.13.
With A21C A35G U72C the self-cleavage was 0.25.
With A21C A45U A56U G70A the self-cleavage was 0.06.
For A21C G63A U78C, the self-cleavage was 0.1.
With A21C U26C A35U A56G the self-cleavage was 0.11.
A21C U31A A64G U80C gave a self-cleavage of 0.19.
A21C U41A U51A gave a self-cleavage of 0.15.
Variant A21C U54C U76C has a self-cleavage of 0.21.
With A21C U60C U80C the self-cleavage was 0.18.
For A21C U72C G73C, the self-cleavage was 0.1.
For A21G A28C U41A, the self-cleavage was 0.26.
A21G A28G A45G U51G G52U G63U U72A gave a self-cleavage of 0.12.
Work on A21G A28G A45G U67C yielded a self-cleavage of 0.1.
In the case of A21G A28G A45U A64G U67C, the self-cleavage is reported as 0.17.
In the case of A21G A28G A45U U49C U74A U80C, the self-cleavage is reported as 0.13.
In the case of A21G A28G A47G, the self-cleavage is reported as 0.31.
For A21G A28G A77U, the self-cleavage was 0.42.
For A21G A28G C44U A64U, the self-cleavage was 0.12.
A21G A28G G52U A64U showed a self-cleavage of 0.15.
Variant A21G A28G G53A U80A has a self-cleavage of 0.25.
With A21G A28G U31C A64U the self-cleavage was 0.07.
Work on A21G A28G U41C yielded a self-cleavage of 0.51.
For A21G A28G U48A A64G, the self-cleavage was 0.28.
A21G A28G U49A U51C U54A showed a self-cleavage of 0.11.
A21G A28G U58G U60A showed a self-cleavage of 0.1.
For A21G A28G U60C, the self-cleavage was 0.23.
Variant A21G A28G U69A has a self-cleavage of 0.24.
With A21G A28G U69C U80A the self-cleavage was 0.11.
Variant A21G A28G U72A U80C has a self-cleavage of 0.4.
A21G A28G U72C gave a self-cleavage of 0.28.
For A21G A28U A45U U67C U74A, the self-cleavage was 0.05.
Work on A21G A28U C29U A65G yielded a self-cleavage of 0.22.
A21G A28U C39A A45U A56G U60C gave a self-cleavage of 0.07.
With A21G A28U U51A the self-cleavage was 0.25.
For A21G A28U U54C, the self-cleavage was 0.33.
Work on A21G A28U U72A yielded a self-cleavage of 0.13.
In the case of A21G A35C C39A A45U, the self-cleavage is reported as 0.04.
With A21G A35C C39U U54C U67C G70C the self-cleavage was 0.03.
A21G A35G U48A G73C U76C U80C showed a self-cleavage of 0.84.
Variant A21G A35G U60G C81A has a self-cleavage of 0.51.
For A21G A35G U69C U78C, the self-cleavage was 0.7.
In the case of A21G A35U A45G, the self-cleavage is reported as 0.12.
A21G A35U A56G U74A showed a self-cleavage of 0.28.
A21G A35U A57U U66C showed a self-cleavage of 0.29.
For A21G A35U C38A, the self-cleavage was 0.13.
In the case of A21G A45C G52C A57G A75G, the self-cleavage is reported as 0.2.
Work on A21G A45G U58G yielded a self-cleavage of 0.11.
Work on A21G A45U A47G U48C U80C yielded a self-cleavage of 0.27.
A21G A45U A56G A77G gave a self-cleavage of 0.06.
For A21G A45U A64U, the self-cleavage was 0.13.
In the case of A21G A45U U51C, the self-cleavage is reported as 0.27.
With A21G A45U U78G the self-cleavage was 0.16.
Variant A21G A47G U49C U54C has a self-cleavage of 0.26.
A21G A47G U51A gave a self-cleavage of 0.61.
Variant A21G A47G U54A U78A has a self-cleavage of 0.86.
A21G A56G U60C gave a self-cleavage of 0.31.
With A21G A56G U74A the self-cleavage was 0.88.
A21G A56U U72C U76C gave a self-cleavage of 0.29.
Work on A21G A57G U66G U72C yielded a self-cleavage of 0.1.
For A21G A64G U67C, the self-cleavage was 0.12.
For A21G C23G A28G U41C, the self-cleavage was 0.31.
Variant A21G C23G A64G has a self-cleavage of 0.31.
A21G C23U U31A gave a self-cleavage of 0.07.
With A21G C27U A47U U60C the self-cleavage was 0.07.
Variant A21G C27U G63A has a self-cleavage of 0.29.
Work on A21G C27U U41C U67C yielded a self-cleavage of 0.06.
Variant A21G C27U U43A A56U A65G has a self-cleavage of 0.1.
A21G C29A C38G U41A U54G U69A A77C showed a self-cleavage of 0.05.
Work on A21G C29U U74C yielded a self-cleavage of 0.66.
A21G C32U A47G U49C U72C gave a self-cleavage of 0.18.
A21G C32U U69C gave a self-cleavage of 0.15.
For A21G C34G A35G A56G, the self-cleavage was 0.06.
Variant A21G C34U A65U has a self-cleavage of 0.34.
For A21G C34U C59U, the self-cleavage was 0.06.
With A21G C37U A56G U58C U74C the self-cleavage was 0.2.
A21G C37U G52C showed a self-cleavage of 0.3.
A21G C37U U41G U72C U76C U78C gave a self-cleavage of 0.1.
Variant A21G C38U A56G has a self-cleavage of 0.24.
With A21G C38U U60C U72A the self-cleavage was 0.11.
Work on A21G C39A U58C A65G U69A yielded a self-cleavage of 0.07.
For A21G C39U G52A A77G, the self-cleavage was 0.32.
In the case of A21G C40A U58C, the self-cleavage is reported as 0.18.
With A21G C40G U49C U51A U72C the self-cleavage was 0.1.
A21G C40U G42A U67C showed a self-cleavage of 0.34.
For A21G C40U U72A A75G, the self-cleavage was 0.38.
Variant A21G C44U G61A has a self-cleavage of 0.73.
For A21G C50G U60C U72C, the self-cleavage was 0.17.
Variant A21G C62U U67A has a self-cleavage of 0.15.
A21G G22C G33C G55C U74A gave a self-cleavage of 0.11.
A21G G22C U66C showed a self-cleavage of 0.19.
In the case of A21G G24A A47U A64G, the self-cleavage is reported as 0.23.
With A21G G24C U58A the self-cleavage was 0.05.
Work on A21G G24U U49G A56G A57G U67A yielded a self-cleavage of 0.03.
With A21G G30A U41C U49A U76C U80A the self-cleavage was 0.06.
With A21G G30A U72C U78A the self-cleavage was 0.05.
With A21G G30U C68U U78C the self-cleavage was 0.13.
With A21G G33A C44G U67C the self-cleavage was 0.06.
Work on A21G G33A U54A U60C A64U yielded a self-cleavage of 0.12.
Work on A21G G33C A35G U78C yielded a self-cleavage of 0.16.
With A21G G33U U58C U67A U69G U72A the self-cleavage was 0.04.
For A21G G36C A64G, the self-cleavage was 0.08.
Work on A21G G36U U67C yielded a self-cleavage of 0.09.
A21G G53C A64G U74A U78C gave a self-cleavage of 0.65.
For A21G G63A U69A U76C, the self-cleavage was 0.19.
A21G G73C U78C gave a self-cleavage of 1.23.
A21G U25A U41A gave a self-cleavage of 0.34.
Work on A21G U25A U41A U74G yielded a self-cleavage of 0.24.
Variant A21G U25A U48C U78A has a self-cleavage of 0.15.
For A21G U25C A28C A56G U69A, the self-cleavage was 0.19.
For A21G U25C A28U U41G A56U U72C, the self-cleavage was 0.04.
A21G U25C A35G showed a self-cleavage of 0.36.
Variant A21G U25C A35G A45G U67C has a self-cleavage of 0.06.
Work on A21G U25C A45U U48C A75U yielded a self-cleavage of 0.09.
In the case of A21G U25C A47G U49C U58C, the self-cleavage is reported as 0.
For A21G U25C A56G, the self-cleavage was 0.18.
With A21G U25C A75G U80C the self-cleavage was 0.4.
In the case of A21G U25C A77G, the self-cleavage is reported as 0.29.
In the case of A21G U25C C29U A57G U80A, the self-cleavage is reported as 0.04.
With A21G U25C C40U U41C U43C A64U U72A the self-cleavage was 0.08.
Variant A21G U25C C44U U69A U78C has a self-cleavage of 0.14.
Variant A21G U25C C81U has a self-cleavage of 0.06.
In the case of A21G U25C G33A, the self-cleavage is reported as 0.3.
A21G U25C U26C U51A showed a self-cleavage of 0.23.
A21G U25C U31A C40U A57G G70C U78C gave a self-cleavage of 0.04.
With A21G U25C U31C C40U A75U the self-cleavage was 0.38.
In the case of A21G U25C U41A U69A U76A, the self-cleavage is reported as 0.16.
A21G U25C U43C A56G U69C showed a self-cleavage of 0.04.
A21G U25C U43C U49C U58C U76C gave a self-cleavage of 0.18.
In the case of A21G U25C U49C G61U C81U, the self-cleavage is reported as 0.07.
In the case of A21G U25C U67C A75G, the self-cleavage is reported as 0.06.
A21G U25C U69C showed a self-cleavage of 0.05.
A21G U26A A28G U31C U60A U69C U76C showed a self-cleavage of 0.03.
In the case of A21G U26A A75U, the self-cleavage is reported as 0.43.
A21G U26A U31C A56U U60C U80A showed a self-cleavage of 0.04.
In the case of A21G U26A U41A U49A, the self-cleavage is reported as 0.07.
With A21G U26A U41C U67C the self-cleavage was 0.16.
A21G U26A U43C A45G U48C C71U showed a self-cleavage of 0.04.
A21G U26A U60C A77U gave a self-cleavage of 0.35.
A21G U26C A35G A47G U51G showed a self-cleavage of 0.66.
A21G U26C A35G A47G U60A gave a self-cleavage of 0.08.
Work on A21G U26C A35U U66C yielded a self-cleavage of 0.3.
Variant A21G U26C A56C U76C has a self-cleavage of 0.16.
A21G U26C A75U gave a self-cleavage of 0.51.
Variant A21G U26C G30A has a self-cleavage of 0.17.
Work on A21G U26C G33A U76C yielded a self-cleavage of 0.07.
For A21G U26C G53A U67A U69A U72C U78C, the self-cleavage was 0.03.
Variant A21G U26C U41A U60C has a self-cleavage of 0.22.
With A21G U26C U41C the self-cleavage was 0.28.
Variant A21G U26C U43C G61A U72C has a self-cleavage of 0.07.
With A21G U26C U58A the self-cleavage was 0.2.
A21G U26C U67A gave a self-cleavage of 0.24.
A21G U26C U72C U78A showed a self-cleavage of 0.22.
In the case of A21G U26C U80G, the self-cleavage is reported as 0.17.
